# PubChem BioAssay AID686971 (National Center for Advancing Translational Sciences (NCATS), 2013)
# Among all 360,000 compounds or so, about 7,500 (2.1%) were called active. Inconclusive means that the source gave no clear call. Such entries were picked first, then a sample of the others. Calls follow the shape of the dose curve; as a rule, active = well fitted cell-killing curve with a large enough effect; inconclusive = small, poorly fitted or top-dose-only effect, or effect the other way, or another doubt; inactive = no such curve, though single readings can be large or run the other way. Potencies of inconclusive entries are left out as doubtful fits.
# Test: qHTS for induction of synthetic lethality in tumor cells producing 2HG: qHTS for the HT-1080-IDH1KD cell line;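 as to activity, negative = toxicity: 0% = DMSO wells and -100% = cell-free medium wells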
# Details: HT-1080 IDH1 knockdown viability, ATP luminescence, 48 h; activity, negative = toxicity: at 46.1 µM (top of the series) unless noted
# Method in brief: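 Luminescent ATP read-out (CellTiter-Glo, 10 min at room temperature) after 48 h compound exposure at 37 °C gave viability of IDH1-knockdown HT-1080 cells. Activity was normalised to DMSO and cell-free wells, then fitted as concentration-response curves.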
# Potency is read from the fitted curve at half-maximal effect; tags tell the direction and shape of the fitted curve.
SMILES,Potency,"activity, negative = toxicity"
CCOC(=O)N1CCN(S(=O)(=O)c2ccc(C(=O)Nc3ccc(F)cc3F)cc2)CC1,"inconclusive [cytotoxic, full curve]",
O=C(Nc1nccs1)c1cccc(N2C(=O)c3cccc4c([N+](=O)[O-])ccc(c34)C2=O)c1,active: 16.4 µM,
CN(C)CCNC(=O)c1cccc(-c2cnc3c(NC=O)cc(-c4cccc(C(F)(F)F)c4)cn23)c1,active: 18.4 µM,
C[n+]1c2n(c3ccccc31)N=C(c1ccc(-c3ccccc3)cc1)CS2,"inconclusive [cytotoxic, partial curve]",
NNC(=O)c1cc2ccccc2[nH]1,active: 2.06 µM,
COc1ccc(-c2cc(C(=O)N/N=C(\C)c3ccco3)c3ccccc3n2)c(OC)c1,"inconclusive [cytotoxic, single point]",
C[C@]12c3[nH]c4cc(-c5ccco5)ccc4c3CCN1C(=O)[C@@H](CC(=O)NCc1cccc(C(F)(F)F)c1)C[C@@H]2C(=O)N1CCCCC1,"inconclusive [cytotoxic, single point]",
Cc1ccc(C(=O)OCC(=O)N2C(C)CCCC2C)cc1S(=O)(=O)N1CCOCC1 (stereo not drawn),,inactive: -3.87%
C/C=C/c1ccc(OCCCCNCc2ccco2)c(OC)c1,"inconclusive [cytotoxic, single point]",
Cc1ccc(NC(=S)N(CCCN2CCC(C)CC2)Cc2ccco2)cc1,,inactive: -5.45%
O=C(/C=C/c1ccc(Cl)cc1)Nc1nccs1,,inactive: -23.9%
Cc1noc(N)c1C(=O)Nc1ccccc1F,,inactive: 19.1%
CCOC(=O)C1=C(Cn2cnc3ccccc32)NC(=O)NC1c1cc(C)ccc1C (stereo not drawn),"inconclusive [cytotoxic, single point]",
CCC(CC)c1nnc(NC(=O)c2cccc(S(=O)(=O)N3CCOCC3)c2)s1,,inactive: -1.36%
N#CC(C#N)=C1C=CC=CN1/C(=C\c1ccccc1Cl)C(=O)c1ccccc1,active: 2.59 µM,
C/C(=N\Nc1ccc(Cl)nn1)c1ccccc1O,active: 3.26 µM,
COc1cc(/C=N/N(C)c2ccccc2)ccc1O,"inconclusive [cytotoxic, single point]",
COc1cccc(N2CCN(C3CCCC(C)C3)CC2)c1 (stereo not drawn),"inconclusive [cytotoxic, single point]",
COc1ccccc1NCC(O)COc1ccc(C(C)(C)C)cc1 (stereo not drawn),active: 16.4 µM,
COc1ccc(OCCN2CCC(C(=O)NC(c3ccccc3)c3ccc4ccccc4n3)CC2)cc1 (stereo not drawn),"inconclusive [cytotoxic, single point]",
Cc1cc(NCCN2CCOCC2)c2ccc3ccccc3c2n1,"inconclusive [cytotoxic, single point]",
Fc1ccc(NC(=S)NNc2ncc(C(F)(F)F)cc2Cl)c(F)c1,active: 16.4 µM,
CCOc1ccccc1N(C)C(=O)Cn1ncc2c([nH]c3ccccc32)c1=O,"inconclusive [cytotoxic, partial curve]",
CN1OC[C@@H]2CN[C@H](c3cccc(-c4cc(Cl)cc(Cl)c4)c3)C[C@@H]21,,inactive: -8.85%

SMILES,Potency,"activity, negative = toxicity"
O=C(O)c1cc(N=Cc2c(O)c3ccccc3oc2=O)ccc1O,"inconclusive [cytotoxic, single point]",
O=C(CCN1C(=O)C2C3C=CC(C4CC34)C2C1=O)Oc1cccc2cccnc12 (stereo not drawn),active: 1.26 µM,
CC(C)C[C@H]1CNC(=S)N1C[C@H]1CCCN1C[C@H](CC(C)C)N1C[C@H](Cc2ccc(O)cc2)N(CC2CCCCC2)C1=S,active: 20.6 µM,
CC1Cc2ccccc2N1CC(=O)NC(=O)NC(C)(C)C (stereo not drawn),,inactive: -11.4%
COc1ccc(C(=O)N2CCC(C(=O)O)CC2)cc1,,inactive: 5.93%
CCN1/C(=C/c2cccc[n+]2C)Sc2ccc(OC)cc21,"inconclusive [cytotoxic, partial curve]",
CN(C)CCNC(=O)c1cccc2nc3c(ccc4ccccc43)nc12,"inconclusive [cytotoxic, partial curve]",
CC(C)c1ccc(NC(=O)Nc2nc(C(N)C3CCCCC3)cs2)cc1 (stereo not drawn),active: 20.6 µM,
Cc1c(Cl)cccc1Nc1nc(NCCO)c2ccccc2n1,"inconclusive [cytotoxic, single point]",
O=C(Nc1nnc(-c2ccccc2)o1)c1ccc(Cl)cc1,"inconclusive [cytotoxic, full curve, poor fit]",
CCCOCCOC(=O)c1[nH]c2c(c1C)C(=O)CC(c1cc(OC)ccc1OC)C2 (stereo not drawn),active: 4.11 µM,
COc1ccc(/C=C/c2cc(-c3ccc(C)cc3)o[n+]2C)cc1,active: 6.51 µM,
O=c1c2c3c(sc2n(CCN2CCCCC2)c(=O)n1Cc1ccco1)CCCCC3,"inconclusive [cytotoxic, single point]",
Fc1ccc(CNc2nc(-c3cccnc3)nc3ccccc23)cc1,"inconclusive [cytotoxic, single point]",
Oc1c(N=Nc2nn[nH]n2)ccc2ccccc12,"inconclusive [cytotoxic, single point]",
O=C(NS(=O)(=O)NC1CCCCC1)C1=C(N2CCCC2)COC1=O,,inactive: -0.385%
S=C1SCN(Cc2ccccc2)CN1Cc1ccccc1,,inactive: 7.62%
N#Cc1nc(-c2ccc(OCc3ccccc3)cc2)oc1N1CCC(C(N)=O)CC1,"inconclusive [cytotoxic, partial curve]",
Clc1ccc(-c2cc3ccccc3nc2N2CCCC2)cc1,,inactive: -3.62%
O=C(NC(NC(=S)Nc1c(Cl)cc(Cl)cc1Cl)C(Cl)(Cl)Cl)OCc1ccccc1 (stereo not drawn),"inconclusive [cytotoxic, single point]",
COc1ccccc1CNc1nc(NCC2CC2)nc2ccsc12,active: 14.6 µM,
CC1=C(C(=O)N(C(C)C)C(C)C)CC(CC(=O)NCCc2ccccn2)C(=O)N1CCCN1CCCC1=O (stereo not drawn),,inactive: 12.4%
CCOc1ccccc1N1CCN(C(=O)c2cccs2)CC1,,inactive: 5.99%
CC1(C)CC2CC(C)(CN2C(=O)COc2cccc3ccccc23)C1 (stereo not drawn),"inconclusive [cytotoxic, single point]",
